In the supplement of paper PMC10126150:
Sequences with one replicate were seen in a single cluster, so their values are uncertain.

Tested on: ATP
Test: switch fluorescence ratio, 500 uM ATP over buffer (Cy3 cluster intensity, sum of 5 cycles each) (fold (ratio)); higher = stronger signal-on switching upon ATP binding; sequences stand for … in TCGTCGGCAGCGTCAGATGTGTATAAGAGACAGTTTTTTTTTTTTTTTTTTTTTTTTT…TC
Settings: aptamer strand: ATP DNA aptamer (quencher-CACCTGGGGGAGTATTGCGGAGGAAGG + anchor), 100 nM annealed; ATP concentration: 500 uM; one replicate
Method in brief: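 Values give the fluorescence ratio for each switch-domain sequence, averaged from per-cluster ratios of summed target-cycle to summed buffer-cycle Cy3 intensity. The Cy3-labelled switching-strand clusters sat on a modified Illumina MiSeq flow-cell, were annealed to 100 nM quencher-labelled ATP aptamer, and were imaged in selection buffer, then after 15 min with 500 uM ATP at 22 °C. Five cycles ran with NaOH stripping and re-annealing between them, and clusters outside 100-1000 RFU were excluded.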
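Further: ATP exposure 15 min at 22 °C before imaging.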

GCGCCTTTTG
switch fluorescence ratio: 0.966

ACCCCGCTCG
switch fluorescence ratio: 1.18

CACGCTTCTT
switch fluorescence ratio: 0.987

ATCTTTCTAC
switch fluorescence ratio: 1.02

GAAGCCTTCA
switch fluorescence ratio: 1.53

CAGGGGGTGG
switch fluorescence ratio: 1.04

GCACCTTTGA
switch fluorescence ratio: 1.02

GAGAGCTTAA
switch fluorescence ratio: 1.01

GTGTGCTACC
switch fluorescence ratio: 1.05

TCAATCTTGC
switch fluorescence ratio: 1.06

CGAAAATTTG
switch fluorescence ratio: 1.02

GACTAGCTAT
switch fluorescence ratio: 1.1

TTTCTGTGTG
switch fluorescence ratio: 0.989

CTGTGATCGG
switch fluorescence ratio: 0.998

GCCTGAGGCT
switch fluorescence ratio: 0.977

ATAACTTAGC
switch fluorescence ratio: 1.05

AAATGTGTAT
switch fluorescence ratio: 0.989

CAGGGTACAT
switch fluorescence ratio: 1

ACGATAAGGA
switch fluorescence ratio: 1.03

GGATGCATCT
switch fluorescence ratio: 1.02

GCCGACGTGA
switch fluorescence ratio: 1.93

TGCGGGGGCC
switch fluorescence ratio: 0.991

ACTGGATCCG
switch fluorescence ratio: 1.26

TGTGTGGACA
switch fluorescence ratio: 0.957

CGGATTGAT
switch fluorescence ratio: 0.995

ATATAAGATA
switch fluorescence ratio: 1.05

AAAGGGTGCC
switch fluorescence ratio: 0.986

CGACGGGTAG
switch fluorescence ratio: 1.02

TGAACTGCAC
switch fluorescence ratio: 1.61

AGACCTCGTT
switch fluorescence ratio: 1.25

GCTTCCTGTA
switch fluorescence ratio: 1.06

CAGGCTATCA
switch fluorescence ratio: 1.02

GTAGTGGTTA
switch fluorescence ratio: 0.995

CCCATTCCCT
switch fluorescence ratio: 1.06

GGCGAGGATA
switch fluorescence ratio: 1.03

TTGAAAGTCA
switch fluorescence ratio: 1.02

TTCTGCTACT
switch fluorescence ratio: 1.17

TGCACAACTA
switch fluorescence ratio: 1.05

GGTTCGTGCA
switch fluorescence ratio: 1.02

GCCTTGACCG
switch fluorescence ratio: 1.06

TGTAAGATCT
switch fluorescence ratio: 0.965

TAAATCCACA
switch fluorescence ratio: 1.05

ACTTTGTGCA
switch fluorescence ratio: 0.967

AGGCGACGTC
switch fluorescence ratio: 1.01

ATCAGCAGGT
switch fluorescence ratio: 1.02

AACAGGGCT
switch fluorescence ratio: 0.994

CACCTGGCAT
switch fluorescence ratio: 1.14

ATGCCTAGCC
switch fluorescence ratio: 0.991

GGCACTGGTC
switch fluorescence ratio: 1.09

GGGCCTGTAC
switch fluorescence ratio: 0.996

GAAGATGAGA
switch fluorescence ratio: 0.922

TACTAGTTGC
switch fluorescence ratio: 0.997

CTGCACGGTC
switch fluorescence ratio: 1.06

CATACGGGGA
switch fluorescence ratio: 1.09

AGCATATCCT
switch fluorescence ratio: 1.12

GTGAAAAAGC
switch fluorescence ratio: 1

GCCCTATCGG
switch fluorescence ratio: 0.995

ATTGGTAGAC
switch fluorescence ratio: 1

AGCTCGACCA
switch fluorescence ratio: 1.06

CCGAGGGGT
switch fluorescence ratio: 1.14

TAGAATA
switch fluorescence ratio: 1

AGATTAGTGT
switch fluorescence ratio: 0.951

CGTAACACGG
switch fluorescence ratio: 0.973

TCATTCTTG
switch fluorescence ratio: 0.965

TCATGGAG
switch fluorescence ratio: 0.977

GTTTTCGTCA
switch fluorescence ratio: 1.01

GATTGTAAGC
switch fluorescence ratio: 0.989

TACGTTTTGG
switch fluorescence ratio: 0.998

AACCATCTGA
switch fluorescence ratio: 1.03

ACCGGGCGCG
switch fluorescence ratio: 1.05

ACGATTGGA
switch fluorescence ratio: 0.995

AGACTTGGCT
switch fluorescence ratio: 1.02

GGAAACAGTA
switch fluorescence ratio: 1.16

TTGGTACTC
switch fluorescence ratio: 1.11

CGGTGTGAG
switch fluorescence ratio: 0.995

GCAACGTACG
switch fluorescence ratio: 1.37

TATACTGTTA
switch fluorescence ratio: 1.05

CTTAAGCTCA
switch fluorescence ratio: 0.988

CAGACGTGTC
switch fluorescence ratio: 0.966

ACTTCTCTTC
switch fluorescence ratio: 1.04

AGGACGCGG
switch fluorescence ratio: 1.1

TGCGGTGTGT
switch fluorescence ratio: 1.01

CTGTTCAGGG
switch fluorescence ratio: 0.949

CGAGGCTACG
switch fluorescence ratio: 1.13

CTCTTGA
switch fluorescence ratio: 0.944

GGCAATTGGC
switch fluorescence ratio: 0.962

TCCGTAAACC
switch fluorescence ratio: 2.92

AATTATCTTA
switch fluorescence ratio: 0.958

AACGGCTACC
switch fluorescence ratio: 1.31

CTCGCAAC
switch fluorescence ratio: 2.03

AAATGAGTAA
switch fluorescence ratio: 0.982

CAGGCAAATC
switch fluorescence ratio: 1.37

GAAGCGACTG
switch fluorescence ratio: 0.925

TTGAGTAGCT
switch fluorescence ratio: 1.01

AGCGTGTA
switch fluorescence ratio: 1.02

TTCCGCCATG
switch fluorescence ratio: 1.34

GAACACAAGG
switch fluorescence ratio: 1.02

CGGCGAGAGA
switch fluorescence ratio: 1.01

GTGTAATCGG
switch fluorescence ratio: 0.981

ATGGTAATGC
switch fluorescence ratio: 1.17

TATAAGTGCC
switch fluorescence ratio: 1.03

GCCTTTGTGC
switch fluorescence ratio: 0.952

TATAAATGCA
switch fluorescence ratio: 0.957

CACAGATGAA
switch fluorescence ratio: 1

TTTTCCGCAG
switch fluorescence ratio: 5.13

AGGTATCTTT
switch fluorescence ratio: 1.01

CAGTTAAAT
switch fluorescence ratio: 0.989

AGCCGTTAGG
switch fluorescence ratio: 1

ATCGCCGTGA
switch fluorescence ratio: 1.05

ATTGATTGTC
switch fluorescence ratio: 1.03

TGGTCTAGCA
switch fluorescence ratio: 0.962

TATAGTACGC
switch fluorescence ratio: 1.04

TAAAGCTCAT
switch fluorescence ratio: 1.08

GAAGGTAGAA
switch fluorescence ratio: 1.04

TTATTGCT
switch fluorescence ratio: 0.974

GATCCTGCT
switch fluorescence ratio: 0.987

TTTCCGATCT
switch fluorescence ratio: 1.08

CGGCCAGGTA
switch fluorescence ratio: 1.22

GCGTTAAATG
switch fluorescence ratio: 0.987

CGCTTGTGCG
switch fluorescence ratio: 0.929

GACTTGTGTG
switch fluorescence ratio: 0.967

TTTGAGCAAA
switch fluorescence ratio: 2.78

CCGCTCGGGA
switch fluorescence ratio: 1.49

AGGAGCGAGT
switch fluorescence ratio: 0.964

AAGCCCTTCG
switch fluorescence ratio: 1.2

TACAAGGAGG
switch fluorescence ratio: 0.968

GAATAAGTAG
switch fluorescence ratio: 1.01

GCACGCATTA
switch fluorescence ratio: 1.63

CTAATTCTGG
switch fluorescence ratio: 0.973

CGTATAAAGG
switch fluorescence ratio: 0.993

AGGCGATACG
switch fluorescence ratio: 1.12

CTCGTCAGTT
switch fluorescence ratio: 0.99

TCGTACGGTT
switch fluorescence ratio: 0.974

GAGTTGTGGT
switch fluorescence ratio: 0.974

ATCATGTGAA
switch fluorescence ratio: 0.981

AAATGCAGTT
switch fluorescence ratio: 1.02

GGGCAAGTAA
switch fluorescence ratio: 1.03

CGAAAGTCGA
switch fluorescence ratio: 0.985

ATTTCCCTAT
switch fluorescence ratio: 0.998

CGGAATGGGT
switch fluorescence ratio: 0.99

GTATTTTGC
switch fluorescence ratio: 1.05

GAGGATTGAA
switch fluorescence ratio: 0.959

CTGCGGACTG
switch fluorescence ratio: 1.04

GTCGTAATCG
switch fluorescence ratio: 1.01

AACGGCTTAA
switch fluorescence ratio: 1.01

ACATAGCCCG
switch fluorescence ratio: 1.02

TCCTTGCTGG
switch fluorescence ratio: 1.23

CATTGGTCCC
switch fluorescence ratio: 1

TTCAAGGGAA
switch fluorescence ratio: 0.981

GGGCGGCAGA
switch fluorescence ratio: 0.988

TGCGCAGGGG
switch fluorescence ratio: 1.03

TGTTTTCCA
switch fluorescence ratio: 0.939

TTGTTAGACA
switch fluorescence ratio: 1.02

TGCCGAGGTA
switch fluorescence ratio: 1.01

TATCAAC
switch fluorescence ratio: 0.96

AATCGAAAAA
switch fluorescence ratio: 1

TCCAAGACTA
switch fluorescence ratio: 1.04

AAGTTAGATG
switch fluorescence ratio: 0.995
